# These are yes or no findings as the source states them, for the method shown. For part of these data: Binding seen in cells or lysates may run through a third protein. Some entries that bind do so weakly or less than the wild type. For part of these data: Where a sequence is shown, tags or fusion partners need not be part of it.
# The chains behind the UniProt entries cited, without tags or fusion partners. Where a name states a change or a piece, a line headed by the entry shows the natural chain unless it says otherwise.
# UniProt Q8R5A0: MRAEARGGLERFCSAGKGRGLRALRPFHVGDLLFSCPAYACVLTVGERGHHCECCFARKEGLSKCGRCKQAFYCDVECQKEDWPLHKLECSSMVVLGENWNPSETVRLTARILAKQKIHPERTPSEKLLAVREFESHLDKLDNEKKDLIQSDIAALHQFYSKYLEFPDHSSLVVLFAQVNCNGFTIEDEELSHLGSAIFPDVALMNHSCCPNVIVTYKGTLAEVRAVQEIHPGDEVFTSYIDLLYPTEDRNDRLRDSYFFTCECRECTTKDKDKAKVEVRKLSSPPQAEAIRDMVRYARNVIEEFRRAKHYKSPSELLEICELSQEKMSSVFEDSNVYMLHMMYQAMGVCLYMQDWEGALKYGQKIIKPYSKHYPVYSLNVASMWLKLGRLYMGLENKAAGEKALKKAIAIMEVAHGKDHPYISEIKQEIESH
# UniProt P62137: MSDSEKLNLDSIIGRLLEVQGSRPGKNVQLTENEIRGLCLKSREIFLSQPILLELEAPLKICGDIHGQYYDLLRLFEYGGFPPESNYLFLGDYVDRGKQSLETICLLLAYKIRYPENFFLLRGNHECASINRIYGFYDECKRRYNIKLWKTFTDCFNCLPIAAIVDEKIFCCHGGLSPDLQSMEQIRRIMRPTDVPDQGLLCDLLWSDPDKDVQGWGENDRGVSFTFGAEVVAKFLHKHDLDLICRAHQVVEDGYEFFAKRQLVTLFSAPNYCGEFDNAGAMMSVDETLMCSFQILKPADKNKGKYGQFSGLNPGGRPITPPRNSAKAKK
# T1: IKK-ε, tagged (exogenous, HEK293T) (UniProt Q9R0T8)
# T1 sequence: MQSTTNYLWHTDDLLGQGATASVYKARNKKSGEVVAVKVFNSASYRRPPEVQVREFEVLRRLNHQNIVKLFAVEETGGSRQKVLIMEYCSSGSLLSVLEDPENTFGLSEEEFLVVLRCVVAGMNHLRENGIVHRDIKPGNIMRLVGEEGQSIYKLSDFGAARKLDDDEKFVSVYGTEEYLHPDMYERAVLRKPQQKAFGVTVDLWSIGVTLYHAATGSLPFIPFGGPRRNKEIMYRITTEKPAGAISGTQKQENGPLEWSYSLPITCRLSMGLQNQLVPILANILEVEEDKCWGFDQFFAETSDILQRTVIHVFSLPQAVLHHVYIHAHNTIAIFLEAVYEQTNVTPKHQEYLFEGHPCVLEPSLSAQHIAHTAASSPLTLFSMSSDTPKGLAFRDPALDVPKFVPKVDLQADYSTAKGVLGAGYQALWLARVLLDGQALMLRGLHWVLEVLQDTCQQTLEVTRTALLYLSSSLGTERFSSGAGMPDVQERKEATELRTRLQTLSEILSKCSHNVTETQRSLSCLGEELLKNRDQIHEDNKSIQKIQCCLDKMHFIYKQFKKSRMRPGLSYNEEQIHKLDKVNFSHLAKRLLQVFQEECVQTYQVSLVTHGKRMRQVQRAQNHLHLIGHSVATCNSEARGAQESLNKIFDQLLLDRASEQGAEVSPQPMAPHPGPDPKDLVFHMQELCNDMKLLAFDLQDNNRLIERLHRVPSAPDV
# T2: IRF3 with deletion of DBD (1-140aa) (mouse) (UniProt P70671)
# T2 sequence: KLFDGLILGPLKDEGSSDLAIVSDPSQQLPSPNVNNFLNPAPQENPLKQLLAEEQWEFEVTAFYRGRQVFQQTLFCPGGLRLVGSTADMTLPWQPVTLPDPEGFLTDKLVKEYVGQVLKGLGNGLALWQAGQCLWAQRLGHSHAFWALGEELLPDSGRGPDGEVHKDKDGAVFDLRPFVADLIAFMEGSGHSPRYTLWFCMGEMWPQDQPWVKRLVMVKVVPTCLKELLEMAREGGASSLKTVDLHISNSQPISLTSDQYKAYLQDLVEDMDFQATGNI
# T3: IRF3, tagged, wild type (exogenous, HEK293T) (mouse) (UniProt P70671)
# T3 sequence: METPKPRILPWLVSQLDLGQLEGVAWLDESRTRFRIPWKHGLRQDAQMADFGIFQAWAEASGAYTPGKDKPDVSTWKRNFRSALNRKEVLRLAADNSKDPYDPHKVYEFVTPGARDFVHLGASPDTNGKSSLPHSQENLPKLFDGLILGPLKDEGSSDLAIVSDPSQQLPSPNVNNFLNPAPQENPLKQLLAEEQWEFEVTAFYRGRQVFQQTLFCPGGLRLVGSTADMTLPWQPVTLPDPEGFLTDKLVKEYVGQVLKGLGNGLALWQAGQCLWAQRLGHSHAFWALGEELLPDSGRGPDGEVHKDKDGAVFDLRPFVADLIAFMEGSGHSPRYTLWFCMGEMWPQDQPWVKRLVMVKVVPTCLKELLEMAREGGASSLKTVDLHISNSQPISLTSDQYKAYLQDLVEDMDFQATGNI
# T4: endogenous IRF3 (peritoneal macrophages) (mouse (endogenous in peritoneal macrophages)) (UniProt P70671)
# T4 sequence: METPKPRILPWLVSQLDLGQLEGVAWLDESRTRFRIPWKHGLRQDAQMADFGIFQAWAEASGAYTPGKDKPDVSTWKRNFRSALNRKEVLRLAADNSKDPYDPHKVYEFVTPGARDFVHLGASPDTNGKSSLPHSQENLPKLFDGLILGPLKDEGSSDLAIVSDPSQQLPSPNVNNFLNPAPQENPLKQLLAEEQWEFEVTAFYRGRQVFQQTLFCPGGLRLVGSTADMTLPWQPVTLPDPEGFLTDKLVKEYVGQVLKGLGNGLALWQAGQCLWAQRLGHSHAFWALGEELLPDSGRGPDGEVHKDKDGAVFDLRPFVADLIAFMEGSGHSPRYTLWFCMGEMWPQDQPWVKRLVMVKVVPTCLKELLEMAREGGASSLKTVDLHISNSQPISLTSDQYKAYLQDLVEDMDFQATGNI
# T5: endogenous IRF3 (peritoneal macrophages) (mouse (endogenous in peritoneal macrophages)), P70671
# T5 chain: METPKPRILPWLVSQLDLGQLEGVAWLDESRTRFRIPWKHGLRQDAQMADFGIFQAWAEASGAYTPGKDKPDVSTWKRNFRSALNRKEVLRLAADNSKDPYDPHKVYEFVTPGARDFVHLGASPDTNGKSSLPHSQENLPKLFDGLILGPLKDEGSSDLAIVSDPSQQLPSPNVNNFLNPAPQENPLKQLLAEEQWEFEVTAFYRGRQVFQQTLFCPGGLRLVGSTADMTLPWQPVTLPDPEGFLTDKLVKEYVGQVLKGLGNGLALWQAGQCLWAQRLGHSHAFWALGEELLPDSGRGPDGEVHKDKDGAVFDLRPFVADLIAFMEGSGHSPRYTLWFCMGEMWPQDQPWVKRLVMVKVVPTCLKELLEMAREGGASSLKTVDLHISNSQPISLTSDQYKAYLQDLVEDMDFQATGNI
# Assays:
# [1] = target: T1, IKK-ε, tagged (exogenous, HEK293T); assay: co-IP
# [2] = target: T2, IRF3 with deletion of DBD (1-140aa) (mouse); assay: co-IP
# [3] = target: T3, IRF3, tagged, wild type (exogenous, HEK293T) (mouse); assay: co-IP
# [4] = target: Flag-tagged SMYD2 (RAW 264.7) (mouse) (UniProt Q8R5A0); assay: co-IP
# [5] = target: T4, endogenous IRF3 (peritoneal macrophages) (mouse (endogenous in peritoneal macrophages)); assay: co-IP
# [6] = target: endogenous SMYD2 (peritoneal macrophages) (mouse (endogenous in peritoneal macrophages)) (UniProt Q8R5A0); assay: co-IP
# [7] = target: SMYD2Δ1-195aa (mouse) (UniProt Q8R5A0); assay: co-IP
# [8] = target: SMYD2Δ1-251aa (mouse) (UniProt Q8R5A0); assay: co-IP
# [9] = target: T5, endogenous IRF3 (peritoneal …); assay: native gel or EMSA; details: remark: other sources report otherwise
molecule,measurement,setting,value
"SMYD2, tagged, wild type (exogenous, HEK293T) (from UniProt Q8R5A0 1-433)",binding,[1],no binding
same,binding,[2],binds
same,binding,[3],binds
SMYD2Δ1-195aa (from UniProt Q8R5A0 196-433) (domain or fragment),binding,[3],binds
SMYD2Δ1-251aa (from UniProt Q8R5A0 252-433) (domain or fragment),binding,[3],no binding
endogenous PP1α (RAW 264.7) (from UniProt P62137 1-330) (enzyme),binding,[4],binds
endogenous PP1α (peritoneal macrophages) (from UniProt P62137 1-330) (enzyme),binding,[5],binds
same,binding,[6],binds
endogenous SMYD2 (peritoneal macrophages) (from UniProt Q8R5A0 1-433),binding,[5],binds
tagged PP1α (exogenous) (from UniProt P62137 1-330) (enzyme),binding,[7],binds
same,binding,[8],no binding
"endogenous IRF3 (peritoneal macrophages), P70671 1-419 (protein) METPKPRILPWLVSQLDLGQLEGVAWLDESRTRFRIPWKHGLRQDAQMADFGIFQAWAEASGAYTPGKDKPDVSTWKRNFRSALNRKEVLRLAADNSKDPYDPHKVYEFVTPGARDFVHLGASPDTNGKSSLPHSQENLPKLFDGLILGPLKDEGSSDLAIVSDPSQQLPSPNVNNFLNPAPQENPLKQLLAEEQWEFEVTAFYRGRQVFQQTLFCPGGLRLVGSTADMTLPWQPVTLPDPEGFLTDKLVKEYVGQVLKGLGNGLALWQAGQCLWAQRLGHSHAFWALGEELLPDSGRGPDGEVHKDKDGAVFDLRPFVADLIAFMEGSGHSPRYTLWFCMGEMWPQDQPWVKRLVMVKVVPTCLKELLEMAREGGASSLKTVDLHISNSQPISLTSDQYKAYLQDLVEDMDFQATGNI",binding,[9],binds
